In PubChem BioAssay AID1476 (National Center for Advancing Translational Sciences (NCATS), 2009):
“And” between values parts separate entries of the source, which are not always exact repeats. Equal values may be shown once. Among all 200,000 compounds or so, about 4,500 (2.2%) were called active. The shares of active, inactive and inconclusive entries below differ from those in the screen. Calls follow the shape of the dose curve; as a rule, active = well fitted inhibition curve with a large enough effect; inconclusive = small, poorly fitted or top-dose-only effect, or effect the other way; inactive = flat fitted curve, though single readings scatter. A potency beside an inconclusive call is a rough fit, not a confirmed value.

biological target: Cruzipain (Trypanosoma cruzi) (UniProt P25779); assay: qHTS Assay for Promiscuous and Specific Inhibitors of Cruzain (without detergent); conditions: purified cruzain, Z-FR-AMC fluorescence, no detergent; also: nearly all actives have a fitted effect of over 40% in size;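 as to max response, negative = inhibition: plate controls were enzyme without inhibitor for no effect and buffer without enzyme for full effect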
Sequence of UniProt P25779 (P25779 whole entry, looked up): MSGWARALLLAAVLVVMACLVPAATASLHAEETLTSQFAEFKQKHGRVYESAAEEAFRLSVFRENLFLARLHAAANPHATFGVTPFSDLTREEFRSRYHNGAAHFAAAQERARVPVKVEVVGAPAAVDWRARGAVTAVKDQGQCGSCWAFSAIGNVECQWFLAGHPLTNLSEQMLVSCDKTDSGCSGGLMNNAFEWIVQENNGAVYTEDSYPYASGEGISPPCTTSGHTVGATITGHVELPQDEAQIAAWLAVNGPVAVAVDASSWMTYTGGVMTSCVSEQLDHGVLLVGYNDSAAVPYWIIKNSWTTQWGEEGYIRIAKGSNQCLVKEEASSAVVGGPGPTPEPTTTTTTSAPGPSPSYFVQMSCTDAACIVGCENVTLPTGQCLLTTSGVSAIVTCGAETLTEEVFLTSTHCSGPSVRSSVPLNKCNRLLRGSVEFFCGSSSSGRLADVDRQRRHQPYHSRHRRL
Method in brief: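 Purified cruzain at 1.5 nM, pre-incubated 15 min with compound at room temperature in 100 mM sodium acetate pH 5.5, 5 mM DTT, 0.00005% Triton X-100. Reaction started with 2 uM Z-FR-AMC; AMC fluorescence increase over 60 s gives rate.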
Potency is read from the fitted curve at half-maximal effect; tags tell the direction and shape of the fitted curve.

Compound | max response, negative = inhibition | Potency
O=C(NC1CC(=O)N(c2ccccc2)C1)C(c1ccccc1)c1ccccc1 (configuration not stated) | inactive: 0.328% | –
COc1ccc(NS(=O)(=O)c2ccc(N/N=C(\C)c3ccncc3)c([N+](=O)[O-])c2)cc1 | – | active: 12.6 µM
c1ccc2c(c1)CN1CCCC1=N2 | – | inconclusive: 31.6 µM [activator, single point]
Cc1cc2nnc(SCC(=O)Nc3cccc(S(=O)(=O)N4CCOCC4)c3)n2c2ccccc12 | – | inconclusive: 39.8 µM [activator, single point]
CCn1c(=O)c(=O)n(CC)c2cc(S(=O)(=O)Nc3cccc(OC)c3)ccc21 | – | inconclusive: 31.6 µM [inhibitor, single point]
Cc1ccc(-c2cc3nc(-c4ccccc4)cc(N4CCOCC4)n3n2)cc1 | – | inconclusive: 6.31 µM [inhibitor, single point]
COc1ccc2c(c1)O[C@@H](c1cccc(C(F)(F)F)c1)[C@H](OC(=O)N[C@H]1CCCc3ccccc31)C2=O | – | inconclusive: 31.6 µM [inhibitor, single point] and inconclusive: 39.8 µM [inhibitor, single point]
Cc1noc(/C=C/N(C)C)c1S(=O)(=O)N(C)CC(=O)NC1CCCCC1 | inactive: -1.93% | –
O=C(Cc1coc2cc3c(cc12)CCC3)OCc1cc(=O)n2c(n1)sc1ccccc12 | – | inconclusive: 25.1 µM [inhibitor, single point]
O=C(NN1C(=O)C2C(c3ccccc3)C=CC(c3ccccc3)C2C1=O)c1cccc(Br)c1 (configuration not stated) | – | inconclusive: 39.8 µM [inhibitor, single point]
O=c1cnc2cnc(Oc3cccc(Cl)c3)nc2n1CCc1ccccc1 | – | inconclusive: 39.8 µM [activator, single point]
Cc1cc(C)n(C(=O)c2sc3cc(F)ccc3c2Cl)n1 | – | inconclusive: 31.6 µM [inhibitor, single point]
Cc1ccc(C)c(NC(=S)NC(NC(=O)Cc2cccc3ccccc23)C(Cl)(Cl)Cl)c1 (configuration not stated) | – | active: 7.94 µM
Cn1c(SCC(=O)N/N=C/C=C\c2ccccc2[N+](=O)[O-])nc2ccccc21 | – | inconclusive: 39.8 µM [inhibitor, single point]
CCC(Sc1nc(-c2ccc(F)cc2)nc2c1Cc1c(CO)cnc(C)c1O2)C(=O)Nc1ccc(F)cc1 (configuration not stated) | inactive: 9.44% | –
COc1c(Cl)cc(C(=O)N(Cc2ccccc2F)C2CCS(=O)(=O)C2)cc1Cl (configuration not stated) | inactive: 6.06% | –
O=C(Nc1ccc(O)c(-c2nc3ccccc3s2)c1)c1cccs1 | – | inconclusive: 39.8 µM [inhibitor, single point]
Cc1ccc(/C=C2\SC(=S)N(CC(=O)Nc3ncc(Cc4ccccc4Cl)s3)C2=O)cc1 | – | active: 3.16 µM
Cc1ccc(-c2onc(C)c2C)cc1S(=O)(=O)N1CCOc2ccc(Cl)cc21 | – | inconclusive: 7.94 µM [inhibitor, partial curve]
CSc1nncc(/C(C)=N\Nc2cccc(C)c2)n1 | – | active: 12.6 µM
COc1ccc(-c2cc(C(F)(F)F)nc(SCC(=O)Nc3cc(C)on3)n2)cc1OC | – | inconclusive: 39.8 µM [activator, single point]

Compound | max response, negative = inhibition | Potency
COc1ccc(NC(=O)CSc2ncc(-c3ccc(F)cc3)n2Cc2ccco2)cc1 | inactive: 25.2% | –
CCN(CC)S(=O)(=O)c1ccc2c(c1)N(CC(=O)N1CCN(c3ccc(OC)cc3)CC1)C(=O)CO2 | inactive: 35.9% | –
Cn1cnc(S(=O)(=O)N2CCCC(C(=O)NCc3ccc(Cl)cc3)C2)c1 (configuration not stated) | inactive: 3.6% | –
CC(C)CCNC(=O)c1ccc2c(c1)NC(=O)C(C(C)C)N2 (configuration not stated) | inactive: -5.04% | –
Cc1c(C)n(Cc2ccccc2)c2ccc(C(=O)N3CCN(c4ccc(F)cc4)CC3)cc12 | – | active: 31.6 µM
Cc1cccc(C)c1NC(=O)COc1ccccc1C(=O)Nc1ccc(Br)cn1 | – | inconclusive: 25.1 µM [inhibitor, single point]
CCOc1ccc(CCNC(=O)c2cc3c(=O)n(CC)c4ccccc4c3s2)cc1OCC | inactive: -18.3% | –
Cn1c(C(=O)NC2CCCC2)cc2c(=O)n(C)c3ccccc3c21 | – | inconclusive: 39.8 µM [activator, single point]
CCOc1ccccc1NC(=O)CCCc1nc(-c2ccccc2Cl)no1 | inactive: -10% | –
COc1ccc(N2CCN(c3ccc(-c4nc(-c5ccccc5)no4)cc3[N+](=O)[O-])CC2)cc1 | inactive: -10.5% | –
C=C(Cl)Cl | inactive: -0.945% | –
COc1cc2[nH]c(=O)n(Cc3ccc(C(=O)N4CCN(c5ccc(Cl)cc5)CC4)cc3)c(=O)c2cc1OC | – | inconclusive: 5.01 µM [activator, full curve]
CC(C)c1ccc(Nc2nnc(SCC(=O)c3nnc(-c4ccccc4)o3)s2)cc1 | – | active: 12.6 µM
O=C(CSc1nc(=O)[nH]c2c1CCCC2)NCc1ccccc1Cl | inactive: -1.95% | –
CC1=C(C(=O)Nc2cccnc2)C(c2cccc(F)c2)n2nc(SCc3ccccc3F)nc2N1 (configuration not stated) | inactive: 5.7% | –
CCN(CC)c1ccc(/C=C2\CCC(/C=N/NC(=O)c3ccc(=O)n(C)c3)=C2N2CCOCC2)cc1 | – | inconclusive: 39.8 µM [activator, single point]
O=C(O)c1ccc(OCc2ccccc2)c(Cl)c1 | inactive: 1.51% | –
COc1ccc(N2CCN(C(=O)C3CCCN(C(=O)c4cc5sccc5n4C)C3)CC2)cc1 (configuration not stated) | – | inconclusive: 25.1 µM [activator, partial curve]
NC(=NCCCCCCN=C(N)/N=C(\N)Nc1ccc(Cl)cc1)/N=C(\N)Nc1ccc(Cl)cc1 | – | inconclusive: 39.8 µM [inhibitor, single point] and inconclusive: 31.6 µM [inhibitor, single point]
O=S(=O)(c1cnccc1N1CCN(/N=C/c2ccccc2)CC1)N1CCCCC1 | – | inconclusive: 39.8 µM [activator, single point]
CCC(C)(C(=O)NC1CCCCC1)N(Cc1ccco1)C(=O)CNC(=O)c1ccccc1 (configuration not stated) | inactive: 5.14% | –
